# Data from the supplement of paper PMC8728848.
# This is one part of the list.
# B1: CVN-E41G (protein)
# chain: MHHHHHHENLYFQSGNFSQACYNSAIQGSVLTSTCIRTNGGYNTSSIDLNSVIGNVDGSLKWQGSNFIETCRNTQLAGSSELAAECKTRAQQFVSTKINLDDHIAAIDGTLKYE
# Legend:
# Assay in all cases: glycan array binding signal (z-score within array); higher = stronger binding
# Details in all cases: glycan notation: IUPAC condensed, linker removed; mutation: E41G
# [1] = target: Fuc(a1-2)Gal(b1-4)[Fuc(a1-3)]GlcNAc
# How it was run: (§1)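 Glycan array binding is given as a within-array Z-score, which can be read as non-binding when negative. The arrays, 3228 of them, came from the Consortium for Functional Glycomics database and were retained only where the protein sequence was available. Z-scores were averaged across arrays of the same protein sequence at different concentrations or buffers and across linkers.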
# [2] = target: Fuc(a1-2)Gal(b1-4)[Fuc(a1-3)]GlcNAc(b1-2)Man(a1-3)[Fuc(a1-2)Gal(b1-4)[Fuc(a1-3)]GlcNAc(b1-2)Man(a1-6)]Man(b1-4)GlcNAc(b1-4)[Fuc(a1-6)]GlcNAc
# How it was run: as §1
# [3] = target: Fuc(a1-2)Gal(b1-4)[Fuc(a1-3)]GlcNAc(b1-2)[Fuc(a1-2)Gal(b1-4)[Fuc(a1-3)]GlcNAc(b1-4)]Man(a1-3)[Fuc(a1-2)Gal(b1-4)[Fuc(a1-3)]GlcNAc(b1-2)Man(a1-6)]Man(b1-4)GlcNAc(b1-4)GlcNAc
# How it was run: as §1
# [4] = target: Fuc(a1-2)Gal(b1-4)[Fuc(a1-3)]GlcNAc(b1-3)Gal(b1-4)[Fuc(a1-3)]GlcNAc
# How it was run: as §1
# [5] = target: Fuc(a1-2)Gal(b1-4)[Fuc(a1-3)]GlcNAc(b1-3)Gal(b1-4)[Fuc(a1-3)]GlcNAc(b1-3)Gal(b1-4)[Fuc(a1-3)]GlcNAc
# How it was run: as §1
# [6] = target: Fuc(a1-2)Gal(b1-4)[Fuc(a1-3)]GlcNAc(b1-3)GalNAc
# How it was run: as §1
# [7] = target: Fuc(a1-2)Gal(b1-4)[Fuc(a1-3)]GlcNAc(b1-3)[Neu5Ac(a2-6)Gal(b1-4)GlcNAc(b1-6)]Gal(b1-4)Glc
# How it was run: as §1
# [8] = target: Fuc(a1-2)Gal3S(b1-4)GlcNAc
# How it was run: as §1
# [9] = target: Fuc(a1-2)Gal6S(b1-3)GlcNAc
# How it was run: as §1
# [10] = target: Fuc(a1-2)Gal6S(b1-3)GlcNAc6S
# How it was run: as §1
# [11] = target: Fuc(a1-2)Gal6S(b1-4)Glc
# How it was run: as §1
# [12] = target: Fuc(a1-2)Gal6S(b1-4)Glc6S
# How it was run: as §1
# [13] = target: Fuc(a1-2)[Gal(a1-3)]Gal
# How it was run: as §1
# [14] = target: Fuc(a1-2)[Gal(a1-3)]Gal(b1-3)GalNAc
# How it was run: as §1
# [15] = target: Fuc(a1-2)[Gal(a1-3)]Gal(b1-3)GalNAc(b1-3)Gal(a1-4)Gal(b1-4)Glc
# How it was run: as §1
# [16] = target: Fuc(a1-2)[Gal(a1-3)]Gal(b1-3)GlcNAc
# How it was run: as §1
# [17] = target: Fuc(a1-2)[Gal(a1-3)]Gal(b1-3)GlcNAc(b1-2)Man(a1-3)[Fuc(a1-2)[Gal(a1-3)]Gal(b1-3)GlcNAc(b1-2)Man(a1-6)]Man(b1-4)GlcNAc(b1-4)GlcNAc
# How it was run: as §1
# [18] = target: Fuc(a1-2)[Gal(a1-3)]Gal(b1-3)GlcNAc(b1-2)Man(a1-3)[Fuc(a1-2)[Gal(a1-3)]Gal(b1-3)GlcNAc(b1-2)Man(a1-6)]Man(b1-4)GlcNAc(b1-4)[Fuc(a1-6)]GlcNAc
# How it was run: as §1
# [19] = target: Fuc(a1-2)[Gal(a1-3)]Gal(b1-3)GlcNAc(b1-3)GalNAc
# How it was run: as §1
# [20] = target: Fuc(a1-2)[Gal(a1-3)]Gal(b1-3)GlcNAc(b1-6)GalNAc
# How it was run: as §1
# [21] = target: Fuc(a1-2)[Gal(a1-3)]Gal(b1-4)Glc
# How it was run: as §1
# [22] = target: Fuc(a1-2)[Gal(a1-3)]Gal(b1-4)GlcNAc
# How it was run: as §1
# [23] = target: Fuc(a1-2)[Gal(a1-3)]Gal(b1-4)GlcNAc(b1-2)Man
# How it was run: as §1
# [24] = target: Fuc(a1-2)[Gal(a1-3)]Gal(b1-4)GlcNAc(b1-2)Man(a1-3)[Fuc(a1-2)[Gal(a1-3)]Gal(b1-4)GlcNAc(b1-2)Man(a1-6)]Man(b1-4)GlcNAc(b1-4)GlcNAc
# How it was run: as §1
# [25] = target: Fuc(a1-2)[Gal(a1-3)]Gal(b1-4)GlcNAc(b1-2)Man(a1-3)[Fuc(a1-2)[Gal(a1-3)]Gal(b1-4)GlcNAc(b1-2)Man(a1-6)]Man(b1-4)GlcNAc(b1-4)[Fuc(a1-6)]GlcNAc
# How it was run: as §1
# [26] = target: Fuc(a1-2)[Gal(a1-3)]Gal(b1-4)GlcNAc(b1-3)GalNAc
# How it was run: as §1
# [27] = target: Fuc(a1-2)[Gal(a1-3)]Gal(b1-4)GlcNAc(b1-3)[Fuc(a1-2)[Gal(a1-3)]Gal(b1-4)GlcNAc(b1-6)]GalNAc
# How it was run: as §1
# [28] = target: Fuc(a1-2)[Gal(a1-3)]Gal(b1-4)GlcNAc(b1-6)GalNAc
# How it was run: as §1
# [29] = target: Fuc(a1-2)[Gal(a1-3)]Gal(b1-4)[Fuc(a1-3)]Glc
# How it was run: as §1
# [30] = target: Fuc(a1-2)[Gal(a1-3)]Gal(b1-4)[Fuc(a1-3)]GlcNAc
# How it was run: as §1
# [31] = target: Fuc(a1-2)[Gal(a1-3)]Gal(b1-4)[Fuc(a1-3)]GlcNAc(b1-3)GalNAc
# How it was run: as §1
# [32] = target: Fuc(a1-2)[Gal(a1-4)]Gal(b1-4)GlcNAc
# How it was run: as §1
# [33] = target: Fuc(a1-2)[GalNAc(a1-3)]Gal
# How it was run: as §1
# [34] = target: Fuc(a1-2)[GalNAc(a1-3)]Gal(b1-3)GalNAc(a1-3)[Fuc(a1-2)]Gal(b1-4)GlcNAc
# How it was run: as §1
# [35] = target: Fuc(a1-2)[GalNAc(a1-3)]Gal(b1-3)GalNAc(b1-3)Gal(a1-4)Gal(b1-4)Glc
# How it was run: as §1
# [36] = target: Fuc(a1-2)[GalNAc(a1-3)]Gal(b1-3)GlcNAc
# How it was run: as §1
# [37] = target: Fuc(a1-2)[GalNAc(a1-3)]Gal(b1-3)GlcNAc(b1-2)Man(a1-3)[Fuc(a1-2)[GalNAc(a1-3)]Gal(b1-3)GlcNAc(b1-2)Man(a1-6)]Man(b1-4)GlcNAc(b1-4)GlcNAc
# How it was run: as §1
# [38] = target: Fuc(a1-2)[GalNAc(a1-3)]Gal(b1-3)GlcNAc(b1-2)Man(a1-3)[Fuc(a1-2)[GalNAc(a1-3)]Gal(b1-3)GlcNAc(b1-2)Man(a1-6)]Man(b1-4)GlcNAc(b1-4)[Fuc(a1-6)]GlcNAc
# How it was run: as §1
binder,measurement,setting,value
B1,glycan array binding signal (z-score),[1],-0.159
same,glycan array binding signal (z-score),[2],-0.033
same,glycan array binding signal (z-score),[3],0.014
same,glycan array binding signal (z-score),[4],-0.107
same,glycan array binding signal (z-score),[5],-0.033
same,glycan array binding signal (z-score),[6],-0.07
same,glycan array binding signal (z-score),[7],-0.162
same,glycan array binding signal (z-score),[8],-0.177
same,glycan array binding signal (z-score),[9],-0.148
same,glycan array binding signal (z-score),[10],-0.076
same,glycan array binding signal (z-score),[11],-0.173
same,glycan array binding signal (z-score),[12],-0.023
same,glycan array binding signal (z-score),[13],-0.162
same,glycan array binding signal (z-score),[14],-0.152
same,glycan array binding signal (z-score),[15],-0.088
same,glycan array binding signal (z-score),[16],-0.159
same,glycan array binding signal (z-score),[17],0.17
same,glycan array binding signal (z-score),[18],0.606
same,glycan array binding signal (z-score),[19],-0.166
same,glycan array binding signal (z-score),[20],-0.164
same,glycan array binding signal (z-score),[21],-0.166
same,glycan array binding signal (z-score),[22],-0.18
same,glycan array binding signal (z-score),[23],-0.14
same,glycan array binding signal (z-score),[24],-0.122
same,glycan array binding signal (z-score),[25],0.41
same,glycan array binding signal (z-score),[26],-0.189
same,glycan array binding signal (z-score),[27],-0.096
same,glycan array binding signal (z-score),[28],-0.154
same,glycan array binding signal (z-score),[29],-0.157
same,glycan array binding signal (z-score),[30],-0.151
same,glycan array binding signal (z-score),[31],-0.159
same,glycan array binding signal (z-score),[32],-0.185
same,glycan array binding signal (z-score),[33],-0.173
same,glycan array binding signal (z-score),[34],-0.16
same,glycan array binding signal (z-score),[35],-0.158
same,glycan array binding signal (z-score),[36],-0.147
same,glycan array binding signal (z-score),[37],-0.059
same,glycan array binding signal (z-score),[38],0.532
